Measurements as given in publication PMC2680354 (Molecular cell, 2008).

Molecular target: Arp2/3 complex (UniProt P61158)
Assay: fluorescence polarisation

B1: GST-N-WASP VCA (other)
chain: [about 200 residues not shown]HQVPASSGNKAALLDQIREGAQLKKVEQNSRPVSCSGRDALLDQIRQGIQLKSVSDGQESTPPTPAPTSGIVGALMEVMQKRSKAIHSSDEDEDDDDEEDFQDDDEWED
- fold increase in affinity of the GST-VCA dimer over the VCA monomer: 180 fold
